Assay results taken from the supplement of paper PMC3334620.
In all, about 33,000 sequences were measured (“E-score (-0.5 to 0.5)”: median about -0.036, highest 2% from about 0.37 on). This is one part of the list.

Biological target: T1, Yer064c (UniProt P40041)
T1 sequence: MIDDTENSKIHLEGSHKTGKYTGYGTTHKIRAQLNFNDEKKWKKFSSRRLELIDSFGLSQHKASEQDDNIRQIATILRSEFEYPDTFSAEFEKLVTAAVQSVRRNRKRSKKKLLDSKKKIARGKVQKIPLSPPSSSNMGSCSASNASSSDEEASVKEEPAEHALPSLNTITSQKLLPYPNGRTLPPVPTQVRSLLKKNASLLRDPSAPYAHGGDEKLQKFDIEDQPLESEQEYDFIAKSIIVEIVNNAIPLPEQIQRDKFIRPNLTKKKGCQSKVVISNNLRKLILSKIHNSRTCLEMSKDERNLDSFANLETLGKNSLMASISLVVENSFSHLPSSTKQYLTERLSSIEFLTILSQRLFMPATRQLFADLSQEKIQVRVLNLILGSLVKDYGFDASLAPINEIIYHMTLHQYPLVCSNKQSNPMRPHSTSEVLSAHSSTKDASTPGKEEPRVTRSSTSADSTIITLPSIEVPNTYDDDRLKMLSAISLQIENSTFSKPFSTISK
Test: PBM E-score (8-mer binding enrichment) (E-score (-0.5 to 0.5)); higher = stronger / more preferred TF binding; most listed sequences are background and not binding sites
Settings: protein concentration: 200 nM; construct: GST-full length
Outline: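 Yeast transcription factors carrying a GST tag, as full-length proteins or DNA-binding domains, were produced by PURExpress in vitro transcription/translation. About 100-200 nM protein was applied to universal all-10-mer Agilent arrays, double-stranded by primer extension on fresh or once-stripped slides. Bound protein was detected with fluorescent anti-GST, and scans were normalised with masliner. The Universal PBM Analysis Suite gave each ungapped eight-base word, pooled with its reverse complement, an E-score, a modified Wilcoxon-Mann-Whitney statistic.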

Going from CTGGAATA to GATATATC, the “PBM E-score” value falls from 0.166 to -0.0148.

First: ACTGAGTA
Second: AAGACCAG
The “PBM E-score” value of the first is higher: 0.28 for the first, -0.0791 for the second.

First: AACTACGC
Second: GAGCGCCA
The “PBM E-score” value of the first is higher: 0.0819 for the first, -0.19 for the second.

Compared with CGTTTAGA, CACCGCAG is lower in “PBM E-score” value: -0.0646 for the first, -0.14 for the second.

Compared with ACGGCGCG, ACTCCATA is higher in “PBM E-score” value: -0.125 for the first, 0.206 for the second.

First: CGTCGACC
Second: ATAGCCGC
The “PBM E-score” value of the first is lower: -0.101 for the first, 0.0267 for the second.

Compared with CACGTTGG, GTAGCAAC is lower in “PBM E-score” value: 0.016 for the first, -0.14 for the second.

Going from AACAGGCA to CTTACACA, the “PBM E-score” value rises from -0.132 to 0.177.

Going from GTCACCCA to AATTTATC, the “PBM E-score” value falls from 0.185 to 0.0881.

Going from AGTAAAGA to ACCTGGAC, the “PBM E-score” value falls from 0.0497 to -0.149.

Going from AATCGGAG to CTAGATAC, the “PBM E-score” value falls from 0.119 to 0.0027.

Compared with AAAACTAT, CAAGACAA is lower in “PBM E-score” value: -0.0688 for the first, -0.122 for the second.

Going from GGGTGCCA to TGCTCCCA, the “PBM E-score” value falls from -0.148 to -0.22.

Going from AGCCACCG to CTAGGTCC, the “PBM E-score” value falls from 0.0452 to -0.333.

Compared with GAACACCC, GCGACAGA is lower in “PBM E-score” value: -0.127 for the first, -0.228 for the second.

Going from GCAGCTGA to AATCTTTG, the “PBM E-score” value falls from 0.136 to 0.123.

Compared with CTACAAAA, TTGTACAA is lower in “PBM E-score” value: 0.037 for the first, 0.018 for the second.

Going from AGGTAAAA to GAAGTCGA, the “PBM E-score” value rises from -0.084 to 0.0978.

Going from GATTCCCC to AACTGTTG, the “PBM E-score” value falls from 0.146 to -0.17.

Going from ATGGTTTG to AAGCCGCA, the “PBM E-score” value falls from 0.101 to -0.166.

Going from ATAGCAGA to GCTCTCAA, the “PBM E-score” value falls from 0.0187 to -0.0635.

Compared with AGCCAAGC, GGGGACTA is higher in “PBM E-score” value: -0.208 for the first, 0.235 for the second.

Compared with CTGGTACA, GGGAACCA is higher in “PBM E-score” value: -0.138 for the first, -0.0571 for the second.

Compared with GAAAGGCC, CAAAACAG is higher in “PBM E-score” value: -0.394 for the first, -0.0567 for the second.

Compared with CCTTACTC, AGGCGGAT is lower in “PBM E-score” value: 0.167 for the first, -0.0817 for the second.

Going from GCGGTGGA to CACTTCTC, the “PBM E-score” value falls from -0.0982 to -0.106.

First: ATTGCGAC
Second: CGGCTGAG
The “PBM E-score” value of the first is lower: 0.0486 for the first, 0.183 for the second.

Going from CTCCCGAG to AGCTTATC, the “PBM E-score” value falls from 0.0821 to -0.166.

Going from CGAGTGCA to CTCGTAAG, the “PBM E-score” value rises from 0.00011 to 0.103.

Going from GCATGTAC to GGTGAGCA, the “PBM E-score” value rises from -0.169 to -0.00163.

First: CATAGCAA
Second: CGGTACCA
The “PBM E-score” value of the first is higher: -0.0521 for the first, -0.231 for the second.

Compared with CTTTACGA, ATATTAAA is higher in “PBM E-score” value: -0.0652 for the first, 0.17 for the second.

Going from CCTGAAGC to TGTTAAAA, the “PBM E-score” value rises from -0.132 to 0.055.

Going from AAAAAGGA to TAAGGTGA, the “PBM E-score” value rises from 0.0045 to 0.267.

Going from AAGTCCTG to ACGCAGGC, the “PBM E-score” value falls from 0.179 to 0.00062.

First: CGAAGTAG
Second: CCTAGGCA
The “PBM E-score” value of the first is higher: -0.013 for the first, -0.0973 for the second.

Going from CAGTAAAC to ATGTACTG, the “PBM E-score” value rises from -0.14 to 0.0673.

First: ACGTTAGC
Second: CTCAGGTA
The “PBM E-score” value of the first is lower: 0.0139 for the first, 0.288 for the second.

Compared with ACGGCTCC, ACAACGAC is higher in “PBM E-score” value: 0.0866 for the first, 0.177 for the second.

Compared with GAGGCCTC, ATTAATAC is higher in “PBM E-score” value: -0.386 for the first, 0.175 for the second.

First: ACGCAGTA
Second: CTCTGCTA
The “PBM E-score” value of the first is lower: -0.223 for the first, -0.152 for the second.

Going from CCGTGAGA to GGATGTCA, the “PBM E-score” value rises from -0.101 to -0.0973.

Compared with ATGCTCAA, ATCACTGG is higher in “PBM E-score” value: -0.0195 for the first, 0.16 for the second.

Compared with CACGTTTC, ATCTTGCG is higher in “PBM E-score” value: -0.245 for the first, 0.0337 for the second.

Going from GGACACAA to CAGTCGCG, the “PBM E-score” value rises from -0.0994 to 0.122.

Compared with ATAGCGGG, CCTACCAC is lower in “PBM E-score” value: -0.283 for the first, -0.303 for the second.

Going from CATCATAG to ATGGGAAC, the “PBM E-score” value falls from 0.25 to -0.0553.
